# Experimental data as given in PubChem BioAssay AID1347073 (National Center for Advancing Translational Sciences (NCATS), 2019).
# Hit rate of the full screen: of about 45,000 compounds, about 200 (0.44%) were called active. Roughly 7% stayed inconclusive and do not appear here. Calls follow the shape of the dose curve; as a rule, active = well fitted activation curve with a large enough effect; inconclusive = small, poorly fitted or top-dose-only effect; inactive = no such curve, though single readings can be large or run the other way. Some of the results follow.
# Experiment: qHTS of TDP-43 Inhibitors: NCGC Sytravon Library Screen; also: 0% is about no effect; nearly all actives have a fitted effect of over 55% in size
# Settings: yeast TDP-43 toxicity rescue, BacTiter-Glo growth, 24 h; series mostly up to 46.1 µM; growth rescue (activation): at the top concentration
# Summary of the method: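 TDP-43-expressing yeast, pregrown in raffinose, seeded at OD600 0.02 in galactose medium with compound for 24 hr at 30 deg C. Growth read by BacTiter-Glo luminescence, so rescue of toxicity appears as activation.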
row,SMILES,growth rescue (activation)
1,Cn1ncc([N+](=O)[O-])c1C(=O)Nc1nc2ccccc2n1CCN1CCCCC1,inactive: 12.6%
2,O=c1c2ccccc2nc2n1CC/C2=C\N1CCN(c2ccc([N+](=O)[O-])cc2)CC1,inactive: -1.21%
3,COc1ccc(S(=O)(=O)NCc2cccnc2)c2ccccc12,inactive: 1.22%
4,CCN(CC)S(=O)(=O)c1ccc(Cl)c(NC2=NCCCCC2)c1,inactive: 9.88%
5,CC(=O)NC(Cc1ccccc1)C(=O)OCC(=O)c1ccc(Br)cc1 (stereo unspecified),inactive: 6.53%
6,O=C(CCC1CCCC1)Nc1nnc(-c2ccc3c(c2)OCO3)s1,inactive: 8.38%
7,COC(=O)c1ccc(NC(=O)COC(=O)C2CC(=O)N(Cc3ccccc3)C2)cc1 (stereo unspecified),inactive: -6.09%
8,O=C(COC(=O)c1ccc(O)cc1)Nc1ccc(OC(F)F)cc1,inactive: -2.57%
9,CS(=O)(=O)N(Cc1ccc(C(=O)N2CCc3ccccc3C2)cc1)c1ccccc1,inactive: -0.459%
10,O=C(Nc1ccc(C(=O)O)cc1)/C(=C\c1ccccc1)NC(=O)c1ccco1,inactive: 8.39%
11,CCCCNCCOCCOc1ccc(F)cc1,inactive: -3.39%
12,CCc1nc2ccc(C(=O)NCCCn3ccnc3)cn2c1N(CC)C(=O)NCCc1ccccc1,inactive: -1.31%
13,O=C(Nc1ccn(Cc2ccccc2)n1)c1cccc(F)c1,inactive: 26%
14,COc1ccc(N(CC(=O)Nc2ccc3c(c2)OCO3)S(=O)(=O)c2ccc(C)cc2)cc1OC,inactive: 19.5%
15,COc1ccc(C(=O)NNC(=O)CSc2nnc3ccccn23)cc1OC,inactive: -5.48%
16,COc1cc2c(cc1N/C=C(\C#N)c1nc(-c3ccc(F)cc3)cs1)oc1ccccc12,inactive: -7.16%
17,COC(=O)c1cc(NS(=O)(=O)c2ccc(NCc3cccnc3)c(N)c2)cc(C(=O)OC)c1,inactive: 2.42%
18,CCOc1ccc(OCCCCn2cnc3ccccc3c2=O)cc1,inactive: 26.6%
19,O=C(NNC(=O)C1CCC(C(=O)NNC(=O)c2cccs2)CC1)c1cccs1 (stereo unspecified),inactive: -6.42%
20,Cc1nc2ccc(C(=O)N(C)Cc3ccccc3)cn2c1N(C)C(=O)CCc1ccccc1,inactive: -7.9%
21,CCC(=O)Nc1ccc2nc(SCc3ccccc3)sc2c1,inactive: 26.3%
22,CSc1ccccc1C(=O)C1CCCN(S(=O)(=O)N(C)C)C1 (stereo unspecified),inactive: 16%

row,SMILES,growth rescue (activation)
1,COc1ccccc1CNC(=O)Cc1ccc(OC)c(OC)c1,inactive: 0.8%
2,CC(=O)Nc1ccc2oc(C)nc2c1,inactive: 5.23%
3,Cc1ccc(-c2cc(C(F)F)n3ncc(C(=O)N4CCCCC4c4cccnc4)c3n2)cc1 (stereo unspecified),inactive: 1.87%
4,COc1ccc(-c2csc(C(C#N)=C(O)CSc3nccn3C)n2)cc1OC,inactive: -14.4%
5,Cc1cc(NC(=O)CCC(=O)N(CC(=O)NCC2CCCO2)c2ccc(F)c(Cl)c2)no1 (stereo unspecified),inactive: 3.79%
6,O=C(O)c1ccccc1NS(=O)(=O)c1cccc(-n2sc3ccccc3c2=O)c1,inactive: -1.7%
7,Cc1ccc(C(=O)N/N=C\c2cc3c(cc2Br)OCO3)cn1,inactive: 1.84%
8,CC(C)C(C(=O)NC1CCCC1)N(CC1CCCO1)C(=O)CNS(=O)(=O)c1ccccc1 (stereo unspecified),inactive: -5.07%
9,COc1cc(CN(C)Cc2cc(=O)oc3cc(C)c(Cl)cc23)ccc1OC(F)F,inactive: 23.2%
10,Cc1ccc2cc(CN(C(=O)c3cccs3)c3ccccc3)c(=O)[nH]c2c1,inactive: 0.577%
11,O=S(=O)(c1cc(C(F)(F)F)ccc1Cl)N1CCN(c2ncnc3ccccc23)CC1,inactive: 12.8%
12,O=C(COC(=O)c1ccc[n+]([O-])c1)Nc1cc([N+](=O)[O-])ccc1Cl,inactive: 10.1%
13,O=C(COC(=O)CNC(=O)C1CCCCC1)Nc1ccccc1,inactive: -6.65%
14,Cc1ccc(C)n1-c1ccc(C(=O)NCc2ccncc2)cc1,inactive: -13.8%
15,NS(=O)(=O)c1ccc(NC(=O)COC(=O)c2cnc(Cl)c(Cl)c2)cc1,inactive: 22.7%
16,CCOC(=O)NC1(C(F)(F)F)NC(=O)N(c2cccc(C(F)(F)F)c2)C1=O (stereo unspecified),inactive: 6.46%
17,C=CC[n+]1c(-c2ccc(Cl)cc2Cl)csc1Nc1c(C)n(C)n(-c2ccccc2)c1=O,inactive: -10.6%
18,CCC(=O)N(C)CCc1cc2c(c(OC)c1/C=N/NS(=O)(=O)c1ccc(C)cc1)OCO2,inactive: 19.7%
19,CCC1CCCCN1C(=O)c1cccc(S(=O)(=O)Nc2cc(C(F)(F)F)ccc2Cl)c1 (stereo unspecified),inactive: 1.99%
20,O=C(O)C1CCCN(S(=O)(=O)c2ccc(F)cc2)C1 (stereo unspecified),inactive: -24.5%
21,Cc1ccc(F)cc1C(=O)N1CCOCC1c1cc(C(=O)Nc2ccccc2)no1 (stereo unspecified),inactive: 17.7%
22,COc1ccc(OC)c(C(=O)COC(=O)c2[nH]c(C)c(C(C)=O)c2C)c1,inactive: 24.9%

row,SMILES,growth rescue (activation)
1,Cc1ccc(S(=O)(=O)NCC(=O)OCc2ccccc2)cc1,inactive: 18.9%
2,N#Cc1cccc(NC(=O)Cc2ccccc2)c1,inactive: 27.9%
3,COc1cccc(C(CNc2ccc(S(=O)(=O)N3CCN(C)CC3)cc2[N+](=O)[O-])N(C)C)c1 (stereo unspecified),inactive: 7.12%
4,CC1CN(C(=O)CCC(=O)NCCCN2CCC(Cc3ccccc3)CC2)c2cc(Cl)ccc2O1 (stereo unspecified),inactive: -10.9%
5,COc1cc(CNn2cn[nH]c2=S)ccc1OCC(=O)NC(C)(C)C,inactive: -0.189%
6,COc1ccc(CN2CCN(Cc3csc(C(C)=O)c3)CC2CCO)c(C)c1C (stereo unspecified),inactive: 13.3%
7,CCN(c1ccccc1)S(=O)(=O)c1cc(C(=O)NCc2ccccn2)ccc1C,inactive: 12.6%
8,CCN(CC)S(=O)(=O)c1ccc(/C=C/C(=O)OCC#N)cc1,inactive: 13.7%
9,Cc1cccc(OCCOc2ccccc2C=C(C#N)C#N)c1,inactive: -30.7%
10,COc1ccc(/C=C2/C(=O)OCc3cc(OC)c(OC)cc32)cc1,inactive: 33.2%
11,CC(=O)Nc1ccccc1OCC(=O)NCCc1ccc(Cl)cc1Cl,inactive: 7.13%
12,O=C(NNC(=O)c1ccncc1)Nc1ccc([N+](=O)[O-])cc1,inactive: 17.3%
13,COc1ccnc(Oc2cc(Cl)cc(Cl)c2)c1C#N,inactive: 18.2%
14,CN(C(=O)c1cccc(C#N)c1)c1nnc(-c2ccncc2)s1,inactive: -3.3%
15,Cc1ccc(CSCCNS(=O)(=O)c2ccccc2)cc1,inactive: 28.3%
16,COc1cc(NC(=O)C/C(C)=N/NC(=O)c2cccs2)c(OC)cc1Cl,inactive: 15.2%
17,Cc1ccc(Nc2cc(C)nc(N3CCOCC3)n2)c(C)c1,inactive: 4.42%
18,Cc1ccc(-c2c(C)sc3ncn(CC(=O)N4CCOCC4)c(=O)c23)cc1C,inactive: 12.1%
19,CCOC(=O)C1CCN(C(=O)CC2(CC(=O)O)CCCC2)CC1,inactive: 5.2%
20,COc1cc(/C=C(/NC(C)=O)C(=O)O)cc(Cl)c1OCc1ccc(Br)cc1,inactive: 7.59%
21,O=C1c2ccc([N+](=O)[O-])cc2NC(c2ccco2)N1/N=C/c1ccco1 (stereo unspecified),inactive: 17.1%
22,Cc1ccc(NC(=O)CC(C)c2ccccc2)cc1S(=O)(=O)N1CCOCC1 (stereo unspecified),inactive: 14.3%

row,SMILES,growth rescue (activation)
1,CCCCSc1nnc2n(CCc3ccccc3)c(=O)c3c4c(sc3n12)COC(C)(C)C4,inactive: -14.5%
2,COc1ccc(NC(=S)N2CCN(c3ncccn3)CC2)cc1,inactive: 18.3%
3,COC(=O)c1cc(C(=O)Nc2ccc(Cl)cn2)cc([N+](=O)[O-])c1,inactive: -0.113%
4,COc1ccc(/C=C/C(=O)NC2=NCCS2)cc1OC,inactive: 14%
5,O=C(Nc1ccnn1C1CCN(CC(O)CO)CC1)C1CCCC1 (stereo unspecified),inactive: 16%
6,O=C1CN(C(=O)COC(=O)CCc2ccccc2)c2ccccc2N1,inactive: 9.59%
7,CC(C)CCn1nnnc1CN1CCN(C(=O)c2ccco2)CC1,inactive: -15.9%
8,O=C(CN(C(=O)c1csnn1)c1ccccc1F)NC1CCCCC1,inactive: 7.71%
9,O=C(O)c1csc(-c2cccs2)n1,inactive: 3%
10,Cc1c(NS(=O)(=O)c2cccc(C(=O)N3CCC(C)CC3)c2)c(=O)n(-c2ccccc2)n1C,inactive: -2.13%
11,CCNC(=O)COC(=O)/C=C/c1cccc(F)c1,inactive: 11.5%
12,Cn1ccsc1=NC(=O)c1ccc(S(=O)(=O)C(F)F)cc1,inactive: -3.28%
13,Cc1ccc(O)c(-c2cc(-c3ccccc3C)[nH]n2)c1,inactive: -91.3%
14,Cc1ccc(NC(=O)CCC(=O)OCC(=O)c2ccc(Oc3ccc([N+](=O)[O-])cc3)cc2)cc1,inactive: 17.3%
15,CCN(C(=O)COc1cccc(-n2cnnn2)c1)C1CCS(=O)(=O)C1 (stereo unspecified),inactive: 4.41%
16,CN(C)S(=O)(=O)c1cc(NC(=O)CN2CCc3ccccc32)ccc1Cl,inactive: 3.52%
17,COc1ccc(N(CC(=O)NCCc2ccccc2)C(=O)CCC(=O)Nc2nccs2)cc1,inactive: 0.69%
18,COCCNCc1nc2sc(C)c(-c3ccccc3)c2c(=O)[nH]1,inactive: -2.33%
19,CSCCC(NC(=O)c1ccc(Cl)cc1Cl)C(=O)N(C)Cc1nc2ccccc2c(=O)[nH]1 (stereo unspecified),inactive: -17.8%
20,OCCCc1n[nH]c(=S)n1-c1ccccc1,inactive: -4.04%
21,CCc1nnc(NC(=O)c2ccc(-c3ccc([N+](=O)[O-])cc3Cl)o2)s1,inactive: 3.57%
22,COc1ccc(/C=C(\C)c2nc(C)c(-c3ccccc3)c(=O)[nH]2)cc1,inactive: 10.6%

row,SMILES,growth rescue (activation)
1,CN1C(C(=O)Nc2ncccn2)=C(O)c2ccccc2S1(=O)=O,inactive: 4.9e-05%
2,Cc1nc2c(OCC(=O)c3ccc(F)cc3)cccn2c1N(C)Cc1cccs1,inactive: 3.19%
3,CCn1c(SCC(=O)Nc2nc(-c3ccccc3)cs2)nc2c1c(=O)n(C)c(=O)n2C,inactive: 18%
4,COc1ccc(N2C(=O)C(F)(F)C2c2cccc(F)c2)cc1 (stereo unspecified),inactive: 16.3%
5,Cc1ccc(C(O)c2ncc(-c3cccc(F)c3)[nH]2)cc1 (stereo unspecified),inactive: 11.6%
6,O=C(O)COc1ccccc1/C=N/NC(=O)/C(=C\c1ccc2c(c1)OCO2)NC(=O)c1ccccc1,inactive: -3.6%
7,O=C(N/N=C/c1ccc2c(c1)OCO2)c1cccc2ccccc12,inactive: 10.7%
8,COc1ccc(/C=C/C(=O)NCCc2ccc(S(N)(=O)=O)cc2)cc1,inactive: 24%
9,CCOc1ccccc1C(=O)N[C@H](C(=O)Nc1cc(S(=O)(=O)N(C)C)ccc1OC)C(C)C,inactive: 4.62%
10,COCCNC(=O)c1ccc2c(c1)CCN2S(C)(=O)=O,inactive: -0.421%
11,Cc1cccc(NC(=O)CSc2nnc(CNC(=O)c3ccco3)n2C)c1C,inactive: 0.507%
12,O=C(NCCCNC(=O)c1ccccc1F)c1ccco1,inactive: -2.34%
13,CSc1ncccc1C(=O)Nc1ccc(S(=O)(=O)NC2=NCCCCC2)cc1,inactive: 4.04%
14,COC(=O)/C(C#N)=C/c1c(Oc2cccc(C)c2)nc2ccccn2c1=O,inactive: 12.5%
15,Cc1nc(SCC(=O)NCCc2ccccc2)nc(C)c1C,inactive: -23.1%
16,CC(=O)N1CCN(c2ccc([N+](=O)[O-])cc2)CC1,inactive: 16.5%
17,Clc1cccc(-c2cccc3nccn23)c1,inactive: 1.14%
18,Cc1ccc(-c2cnc(C(O)c3ccc(Cl)c(F)c3)[nH]2)cc1 (stereo unspecified),inactive: 16.8%
